Drawing on the supplement of paper PMC4723716, this text covers viability index for 91 compounds.

Molecules are shown by their SMILES. The full ranking holds about 3,600 compounds; the median of “viability index relative to DMSO control” is about 0.81, and the lowest 2% start at about 0.13. Some of the results follow.
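Note: 384-well serum-free SaLSSA: MitoTracker Red CMXRos staining with saponin lysis, high-content imaging, treated-well particle count divided by plate-mean count of DMSO wells.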

The assay has as its system Plasmodium falciparum NF54 stage V gametocytes. Briefly: viability index relative to DMSO control (fraction); higher = less gametocyte killing. As to conditions: 1.25 µM, incubation time: 72 h.
Compound `CCCCOC(=O)c1ccc(NC2=C(c3ccc(OC)cc3)C(=O)c3ccccc32)cc1` came in with a viability index of 0.525.

Regarding `C=CCNC(=S)N1CCc2c([nH]c3ccccc23)C1C(F)(F)F` (stereo unspecified), the viability index stood at 0.423. Next, `CCC(CC)CN1CCC(O)(c2ccc3oc(C(=O)Nc4ccc(OC)c(OC)c4)cc3c2)CC1`: 1.14; `Cc1cc(C)cc(-n2c(C)cc(C=C3SC(=Nc4ccc(Br)cc4)NC3=O)c2C)c1`: 0.604; `O=[N+]([O-])c1ccc(-c2ccc(C=NNc3ccccn3)o2)cc1`: 0.873. As for `CCN1c2ccc([N+](=O)[O-])cc2N(CC)C1(C)c1ccccc1` (stereo unspecified), the figure is 0.373; as for `COc1cc([N+](=O)[O-])ccc1NC(=O)CN1CCN(C(=O)c2ccco2)CC1`, 1.03. As for `COc1ccc(-c2cn(-c3ccc(OC)cc3)c(SCC(=O)Nc3ccccc3)n2)cc1`, the figure is 1.04.

The compound `Oc1c(C(Nc2ccccn2)c2cccc(Cl)c2Cl)ccc2cccnc12` (stereo unspecified) came in with a viability index of 0.819. As for `CCOc1ccc(NC2=C(N3CCOCC3)C(=O)c3ccccc3C2=O)cc1`, the figure is 0.869.

As for `COc1cc(C(=O)NC(C)C)ccc1OC1CCN(CC(c2ccccc2)c2ccccc2)CC1`, the viability index is 0.399.

For `C[N+](C)(CCCC(=O)c1ccc(C(=O)CCC[N+](C)(C)Cc2ccccc2Cl)cc1)Cc1ccccc1Cl`, the viability index worked out at 1.09. As for `COc1cc(C(=O)NC(c2cccs2)c2cc(Cl)c3cccnc3c2O)cc(OC)c1OC` (stereo unspecified), the figure is 1.25; as for `COc1ccc(C2c3cccn3-c3ccccc3N2C(=O)CN(C(=O)Nc2ccc(C(F)(F)F)cc2)C2CC2)cc1` (stereo unspecified), 1.07; as for `COc1cc(C(c2c(C)n(C)n(-c3ccccc3)c2=O)c2c(C)n(C)n(-c3ccccc3)c2=O)cc(Cl)c1OCc1ccccc1`, 0.699. Next, `Fc1ccc2[nH]c3c(NCCN4CCCCC4)ncnc3c2c1`: 0.987; `COc1ccc2c(c1)C=C([C@@H]1C[C@H]3CN(c4ccccc4)C(=O)[C@]34CCCN14)CO2`: 0.904. As for `O=C(CSc1nc2ccccc2c(=O)n1C1CC1)Nc1cc(C(F)(F)F)ccc1Cl`, the figure is 0.797; as for `COc1ccc(NC2=C(c3ccc(OC)cc3)C(=O)c3ccccc32)cc1`, 0.779.

`CCN(CC)CCNc1ccnc2ccc([N+](=O)[O-])cc12` displayed a viability index of 1.13. As for `Cc1c(C=O)c2ccccc2n1CC(=O)Nc1cccc(I)c1`, the figure is 1.1; as for `N=c1c2c(n(Cc3ccccc3)c3c1CCC3)CCC2`, 0.87.

With `CC1=C(C(=O)OC2CCCCC2)C(c2ccc(F)cc2)C2=C(CC(c3ccccc3)CC2=O)N1` (stereo unspecified), the viability index is 0.751. The compound `Cc1cc(Nc2cc(Cl)cc(Cl)c2)n2nc(C)nc2n1` came in with a viability index of 1.19. On to `CC(C)(C)C(=O)Nc1ccc(C23CC4CC(CC(c5ccccc5)(C4)C2)C3)cc1`, for which the viability index came to 0.562. As for `FC(F)(F)c1cnc(Sc2nnc(-c3ccncc3)o2)c(Cl)c1`, the figure is 0.939. Next, `CCOc1ccc2[nH]c(=O)c(CN(Cc3ccccc3OC)C(C)=O)cc2c1`: 0.882; `CCC(=O)N1CCc2cc(Br)cc(S(=O)(=O)N3CCCCC3CC)c21` (stereo unspecified): 0.936. As for `CCN(CC)CCCNC(=S)N(CCc1cccc(C)c1)Cc1cc2cc(OC)c(OC)cc2[nH]c1=O`, the figure is 0.921; as for `COc1ccc(NC(=O)c2cc3cc(C4(O)CCN(CC(C)c5ccccc5)CC4)ccc3o2)cc1` (stereo unspecified), 0.856. `CCOc1ccc(C(=O)C[N+]2=C(CC)c3ccc(C)n3CC2)cc1`: the viability index turned out to be 0.599. Next, `COc1cc(Nc2cncc(-c3ccc(C(N)=O)cc3)n2)cc(OC)c1OC`: 0.0179; `N#Cc1ccc(CNC(=S)Nc2cc(Cl)ccc2Cl)cc1`: 0.656; `Cc1ccc(Nc2nc(-c3ccccn3)cs2)cc1`: 0.127. Next, `CC(C)c1ccc(NC(=O)C(Cc2cccs2)c2nnn[nH]2)cc1` (stereo unspecified): 0.673.

The compound `O=C(O)c1ccc(C=NNc2ccc([N+](=O)[O-])cc2)cc1` showed a viability index of 0.774. Next, `Cc1cc(NC(c2cccc(Br)c2)c2ccc3cccnc3c2O)no1` (stereo unspecified): 0.785. As for `CCN1C(=Cc2ccc3ccccc3[n+]2CC)Sc2cc(NC(C)=O)ccc21`, the figure is 0.692. Next, `O=C(c1ccc2nc(N3CCCCC3)sc2c1)N1CCN(Cc2ccc3c(c2)OCO3)CC1`: 0.486; `CCOC(=O)c1cnc2ccc(C)cc2c1NCCCN1CCOCC1`: 0.838; `Cc1cccc(CCNc2cc(C)nc3ncnn23)c1`: 0.982. On to `FC(F)(F)c1ccc(-c2nc(C34CC5CC(CC(C5)C3)C4)cs2)cc1`, for which the viability index was determined as 1.2. On to `COc1ccc2nc3ccccc3c(N)c2c1`, for which the viability index is 0.954.

`C=CCOc1c(Br)cc(C=c2sc3n(c2=O)C(c2ccc(OC)c(OC)c2)C(C(=O)OCC)=C(C)N=3)cc1OC` (stereo unspecified) displayed a viability index of 1.2. Next, `CCOC(=O)C1=C(C)NC2=C(C(=O)C(C(=O)OC)C(C)C2)C1c1cc(Br)c(OC)c(OC)c1` (stereo unspecified): 0.847; `Cc1ccc(NC(=O)c2c(I)cnn2C)cc1[N+](=O)[O-]`: 0.634.

With `Brc1ccc2ncnc(NCC3CCCO3)c2c1` (stereo unspecified), the viability index was 1. Next, `CCc1c2ccc(C)n2cc[n+]1CC`: 0.89; `CC(C)c1ccc(NC(=O)C=Cc2ccccc2Cl)cc1`: 0.734; `CC[n+]1c(C=Cc2ccc(C)cc2)ccc2ccccc21`: 0.826. Take `Cn1nc(C(F)(F)F)c(C(=O)Nc2cccc(C(F)(F)F)c2)c1SCc1ccc(Cl)cc1`: the viability index came to 1.21. As for `COc1ccc(-n2c(SC)nc3sc4c(c3c2=O)CCN(Cc2ccccc2)C4)cc1`, the figure is 0.964.

In turn, `Cc1cccc(C)c1NC(=O)CN1C(=O)C(C)(C)Oc2ccc(C(=O)NC(C)(C)C)cc21` gave a viability index of 0.826.

As to `Cc1cc(C)nc(NC(=N)Nc2ccccc2O)n1`, the viability index is 0.868. As for `O=C(COc1ccccc1)Nc1nccs1`, the figure is 0.996; as for `O=C(Nc1cccc(N2CCC(NCC3CCCCC3)CC2)c1)C1CC1`, 0.933.

`CCCCN(CC)C(=O)CSc1nc2ccccc2c(=O)n1Cc1ccco1` gave a viability index of 0.819.

`CCOC(=O)c1ccc(NC(=O)c2sc(NC(=O)c3cc(OC)c(OC)c(OC)c3)c(C(=O)OCC)c2C)cc1` showed a viability index of 0.985. Next, `CCCOC(=O)C1=C(C)NC2=C(C(=O)CC(c3ccc(OC)c(OC)c3)C2)C1c1ccc(Cl)cc1Cl` (stereo unspecified): 0.243; `O=C(Nc1ccccc1C(F)(F)F)N1CCC(N2CCCCC2)CC1`: 1.14; `O=[N+]([O-])c1ccc(Nc2nc(NN=Cc3ccccc3I)nc(Nc3ccccc3)n2)cc1`: 0.985. `CCn1c2c(c(=N)c3ccccc31)CCC2` yielded a viability index of 1.09. As for `N=c1ccn(CC(=O)N2CCCc3ccccc32)c2ccccc12`, the figure is 0.533. Next, `Cc1ccc[n+](C(C)C(=O)c2ccc(-c3ccccc3)cc2)c1` (stereo unspecified): 0.772. Next, `CCCCCc1ccc(-c2cn3nc(CCCCC)sc3n2)cc1`: 0.726; `CCOC(=O)c1cnn(-c2ccnc3cc(Cl)ccc23)c1CNC(C)c1ccco1` (stereo unspecified): 1.4. Compound `Cc1ccc(F)cc1NC(=O)c1cc(Cl)ccc1Nc1ccccc1` displayed a viability index of 0.343. As for `COc1cccc2c1OCC(CN1CCC(C(=O)Nc3ccc(-n4cccn4)cc3)CC1)=C2`, the figure is 1.03.

Take `Oc1cccc2ccc[n+](CC(O)Cn3c4ccccc4c4ccccc43)c12` (stereo unspecified): the viability index came to 0.757.

For the compound `Cc1cccc(NC(=O)c2ccc3ccccc3n2)n1`, the viability index worked out at 0.529. The compound `O=S(=O)(ON=C1CCCc2sc(Cl)cc21)c1ccccc1` gave a viability index of 0.649.

On to `CC(=O)c1ccc(OCc2cc(C(=O)N3CCCCC3c3cccnc3)no2)cc1` (stereo unspecified), for which the viability index turned out to be 0.673. As for `COc1ccc(C(=O)n2nc(N)c3cc4ccc(C)cc4nc32)cc1[N+](=O)[O-]`, the figure is 0.791; as for `COC(=O)c1c(-c2ccccc2Cl)csc1N`, 0.873; as for `CCCC(C(=O)OCC)C(C)=NNc1ccccc1[N+](=O)[O-]` (stereo unspecified), 0.692. Next, `Cc1ccc(-n2c(-c3ccccc3)cc(C=NNC(=O)c3cccc(O)c3)c2-c2ccccc2)cc1`: 0.9. As for `c1cc(-c2nc3ccccc3[nH]2)nc(-c2nc3ccccc3[nH]2)c1`, the figure is 0.946.

In turn, `COc1cc(C=C2SC(=Nc3ccccc3)NC2=O)ccc1OCc1ccccc1F` yielded a viability index of 1.12. Next, `Cc1ccc(-c2nnc(N3CCOCC3)c3ccccc23)cc1S(=O)(=O)N1CCN(C)CC1`: 0.883; `CC(C)(C)NC(=S)Nc1cccc(Cl)c1Cl`: 0.755. Next, `COc1ccc(-c2n(C)c3ccccc3[n+]2CC(=O)OC2CC(C)CCC2C(C)C)cc1` (stereo unspecified): 0.376; `CCCN1CCC(NC(c2ccccc2)c2ccc(Cl)cc2)CC1` (stereo unspecified): 0.812.

In turn, `CCN1C(=Cc2ccc3cc(OC)ccc3[n+]2CC)Sc2ccc(NC(C)=O)cc21` showed a viability index of 0.803. As for `COc1ccc(-c2csc3nc(COc4cccc(C)c4)nn23)c(O)c1`, the figure is 0.687; as for `Cc1cc(N2CCN(C)CC2)nc2ccc(NC(=O)c3ccc(Br)o3)cc12`, 0.924. As for `CC(C(=O)NN=C1CCN(C)CC1)N(c1ccccc1)S(C)(=O)=O` (stereo unspecified), the figure is 0.917; as for `Cc1cc([N+](=O)[O-])ccc1-c1ccc(C(=O)Nc2ccc(-c3nc4ccccc4[nH]3)cc2)o1`, 0.622. For `COc1cccc(OCCN2CCN(c3ncnc4c3cnn4-c3ccccc3)CC2)c1`, the viability index was 1.09. Next, `O=C(COc1ccc(Cl)cc1)Nc1cccc(-c2nc3ncccc3o2)c1`: 0.857; `CCN1C=CC(=Cc2ccc3cc(C)ccc3[n+]2C)C=C1`: 0.911; `NC(Cc1ccccc1)C(=O)N1CCn2c(nc(-c3ccccc3)c2Nc2ccc3c(c2)OCO3)C1` (stereo unspecified): 0.179.
